Sequences with one replicate were seen in a single cluster, so their values are uncertain.

This series has as its system ATP. The series is described as follows: switch fluorescence ratio, 500 uM ATP over buffer (Cy3 cluster intensity, sum of 5 cycles each) (fold (ratio)); higher = stronger signal-on switching upon ATP binding; sequences stand for … in TCGTCGGCAGCGTCAGATGTGTATAAGAGACAGTTTTTTTTTTTTTTTTTTTTTTTTT…TC. The settings on record: aptamer strand: ATP DNA aptamer (quencher-CACCTGGGGGAGTATTGCGGAGGAAGG + anchor), 100 nM annealed; ATP concentration: 500 uM; one replicate. The gist of the method: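 Exposure to 500 uM ATP lasted 15 min at 22 °C before imaging, and a selection-buffer image was taken beforehand, for Cy3-labelled switching-strand clusters on a modified Illumina MiSeq flow-cell annealed to 100 nM quencher-labelled ATP aptamer. Five buffer/ATP cycles were run with NaOH stripping and re-annealing between them. The fluorescence ratio per cluster is summed target-cycle over summed buffer-cycle Cy3 intensity, averaged per switch-domain sequence. Clusters outside 100-1000 RFU were excluded.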
With CAGCCGCCCG, the switch fluorescence ratio was 1.22.

As to TCATTCGGCA, the switch fluorescence ratio worked out at 1.1.

With CTAAAAAGAT, the switch fluorescence ratio was determined as 1.

As for GGAGCAACTT, the switch fluorescence ratio turned out to be 2.64.

For the sequence GATTGAGGTG, the switch fluorescence ratio was 0.983.

As to TAGTTGTGTT, the switch fluorescence ratio is 1.

With ACGACGTACC, the switch fluorescence ratio worked out at 1.95.

Regarding CTGGGTGTTA, the switch fluorescence ratio is 1.03.

ATAACACTGT: the switch fluorescence ratio amounted to 1.07.

For GCTGCCCCGA, the switch fluorescence ratio was determined as 1.09.

For the sequence AGCTTTCATC, the switch fluorescence ratio worked out at 1.04.

For the sequence ACGACTGCAC, the switch fluorescence ratio stood at 3.87.

Turning to AAGAATGGTT, the switch fluorescence ratio worked out at 0.969.

In the case of CATTTTTAGT, the switch fluorescence ratio worked out at 1.02.

For CTTGAACCAT, the switch fluorescence ratio stood at 0.987.

GTGATGGCTC: the switch fluorescence ratio stood at 0.988.

In the case of CTGTGGAT, the switch fluorescence ratio is 1.09.

On to GGTCACAGTT, for which the switch fluorescence ratio worked out at 0.956.

Consider TGGACGGCTA, for which the switch fluorescence ratio was found to be 1.03.

With TACTCTCTTT, the switch fluorescence ratio was found to be 1.01.

In the case of TGCGGCTTAA, the switch fluorescence ratio came out at 1.02.

Regarding CTTAAGGTTA, the switch fluorescence ratio is 1.09.

ACAATTTGG: the switch fluorescence ratio amounted to 1.01.

For the sequence GCATCATCTG, the switch fluorescence ratio came to 0.972.

Take ATTAAGCGTC: the switch fluorescence ratio was found to be 0.938.

Consider CCTGCCCTGC, for which the switch fluorescence ratio was 1.16.

For the sequence TTATGAGGT, the switch fluorescence ratio was found to be 0.992.

With TCTGGGAACC, the switch fluorescence ratio was determined as 1.

On to CTGAGCGCTG, for which the switch fluorescence ratio is 1.05.

Regarding AGATAGGTTT, the switch fluorescence ratio is 0.996.

With ATAACTGGTA, the switch fluorescence ratio turned out to be 1.

With ATAAAGTTTT, the switch fluorescence ratio turned out to be 0.966.

On to TGGATCTGCA, for which the switch fluorescence ratio amounted to 1.01.

On to GCGAAATTTT, for which the switch fluorescence ratio stood at 1.

On to CATGAATGAC, for which the switch fluorescence ratio is 0.989.

As for GGGAGGGATT, the switch fluorescence ratio is 0.985.

With TACTCCCGCA, the switch fluorescence ratio amounted to 2.63.

Consider GCAATGATAA, for which the switch fluorescence ratio turned out to be 1.06.

For CCATTCGTGG, the switch fluorescence ratio was 0.974.

Consider GTGAATGGTA, for which the switch fluorescence ratio is 0.994.

As to AGCACCCTA, the switch fluorescence ratio stood at 1.07.

For TCTCAAGGGT, the switch fluorescence ratio came to 1.03.

Regarding ATCGCACCAT, the switch fluorescence ratio is 1.1.

With GTCATCCATT, the switch fluorescence ratio amounted to 1.04.

GCGTTGAA: the switch fluorescence ratio stood at 1.

Take TTACGTTA: the switch fluorescence ratio amounted to 1.22.

As for GTTTACTCGC, the switch fluorescence ratio amounted to 1.05.

AGAGACTCGT: the switch fluorescence ratio was 1.02.

TACTAGGTTC: the switch fluorescence ratio turned out to be 1.01.

As to TAGATAGTTG, the switch fluorescence ratio was 0.933.

For GGGAAAGTCC, the switch fluorescence ratio was 1.02.

On to CAGTCTCGGA, for which the switch fluorescence ratio is 0.955.

For ATATGCGGTT, the switch fluorescence ratio turned out to be 0.931.

AATTCCGGGC: the switch fluorescence ratio turned out to be 1.07.

Regarding ACGGCGCATT, the switch fluorescence ratio was determined as 1.23.

On to TCGGGCGGCG, for which the switch fluorescence ratio was 1.1.

Regarding CGACAGCACT, the switch fluorescence ratio stood at 2.6.

With TGTTCCAGGC, the switch fluorescence ratio came out at 1.04.

Take ACCCTCGACA: the switch fluorescence ratio is 1.11.

As for CGGTGTATCT, the switch fluorescence ratio was 0.979.

Turning to GATCGATGCA, the switch fluorescence ratio was 1.05.

On to TGACATGC, for which the switch fluorescence ratio was 1.12.

In the case of CGGGAATT, the switch fluorescence ratio worked out at 1.

As for ACTCGGCATC, the switch fluorescence ratio amounted to 2.62.

CCACCGCTT: the switch fluorescence ratio is 4.52.

For TATAATGTCG, the switch fluorescence ratio came out at 1.09.

In the case of TGGGGCAATG, the switch fluorescence ratio amounted to 1.08.

On to GTGTCAAGGT, for which the switch fluorescence ratio worked out at 0.953.

For ATCATTCGCT, the switch fluorescence ratio was 1.06.

TGTCGTGAGA: the switch fluorescence ratio stood at 1.04.

CCGCAAGTTT: the switch fluorescence ratio turned out to be 3.67.

With TGCTTACAAT, the switch fluorescence ratio worked out at 1.04.

On to GGAGTAGGT, for which the switch fluorescence ratio is 0.999.

Consider TTGCTACGGG, for which the switch fluorescence ratio was determined as 1.

As for TGTATCAGGT, the switch fluorescence ratio is 0.975.

Regarding ACGATTTGT, the switch fluorescence ratio was determined as 0.997.

Turning to ACAGTTCGAG, the switch fluorescence ratio is 0.987.

CGTACATTAT: the switch fluorescence ratio was 1.03.

As to ATGCACGTCG, the switch fluorescence ratio was 1.08.

TCCGTTCTAT: the switch fluorescence ratio was 1.16.

Take ACCGGTTTCA: the switch fluorescence ratio came to 0.954.

For the sequence TCGAGAAGTT, the switch fluorescence ratio worked out at 1.01.

For the sequence TAACTCTCGT, the switch fluorescence ratio was 1.06.

Take CGCAGCCCCT: the switch fluorescence ratio was found to be 2.89.

In the case of CAATTACTAA, the switch fluorescence ratio is 0.984.

In the case of GGGTCATTAG, the switch fluorescence ratio stood at 0.988.

On to CGGTTGGCTA, for which the switch fluorescence ratio worked out at 0.99.

Consider GAAGGACCCG, for which the switch fluorescence ratio was found to be 0.941.

As to TCGTGACGCA, the switch fluorescence ratio turned out to be 1.22.

Take ATTTGGTACG: the switch fluorescence ratio was 0.983.

As for ATCAACTTGC, the switch fluorescence ratio came out at 1.03.

TCATACTGAC: the switch fluorescence ratio was 1.31.

Consider TCCTCGGTCA, for which the switch fluorescence ratio came to 2.04.

Take ACCCTTTCCG: the switch fluorescence ratio turned out to be 1.4.

Consider TTTGGTCTGG, for which the switch fluorescence ratio was determined as 0.989.

In the case of GGCTTTTCTG, the switch fluorescence ratio worked out at 1.04.

With GGTTCAATGG, the switch fluorescence ratio came to 1.06.

For the sequence CCGTGTCTTT, the switch fluorescence ratio turned out to be 0.992.

With GGGATGGTCA, the switch fluorescence ratio amounted to 1.04.

As to GGGAGCCAGG, the switch fluorescence ratio amounted to 0.997.

Consider TACGACGACT, for which the switch fluorescence ratio is 1.08.

Consider AAAACGTCAT, for which the switch fluorescence ratio came out at 1.03.

With GGGAGGGTAA, the switch fluorescence ratio is 1.08.

For AGGCGGCGCA, the switch fluorescence ratio amounted to 0.967.

TGTCTTAGGG: the switch fluorescence ratio turned out to be 1.11.

With TTGGGGTGTA, the switch fluorescence ratio came out at 1.

As to TGATGTTAG, the switch fluorescence ratio was found to be 0.94.

In the case of AGAACGTTCA, the switch fluorescence ratio was determined as 1.03.

With AGCACCCAAA, the switch fluorescence ratio was determined as 1.07.

On to GAACTATCGG, for which the switch fluorescence ratio worked out at 0.977.

In the case of TCACGGAAAC, the switch fluorescence ratio was 1.15.

As for AGCGCATACG, the switch fluorescence ratio was 1.18.

On to AAGTGCACGA, for which the switch fluorescence ratio is 0.956.

For the sequence CCGGGATTAA, the switch fluorescence ratio was found to be 1.

With ACGTGTCAAG, the switch fluorescence ratio is 1.01.

On to GGTGGGACTA, for which the switch fluorescence ratio is 0.985.

As for TTAAAGTTCG, the switch fluorescence ratio was determined as 1.05.

ATACATACCG: the switch fluorescence ratio stood at 1.27.

Consider GGGCCGATTG, for which the switch fluorescence ratio amounted to 0.998.

Turning to TCTTCTGCAA, the switch fluorescence ratio came to 1.19.

Source of the values: the supplement of paper PMC10126150.
